Laboratory results reported in PubChem BioAssay AID686979 (National Center for Advancing Translational Sciences (NCATS), 2013).
Several values for one entry are separate records, joined by “and”; a condition that tells them apart may be missing. Equal values may be shown once. The whole screen tested about 420,000 compounds, of which about 50,000 (12%) were called active. Inconclusive means that the source gave no clear call. Such entries were picked first, then a sample of the others. Calls come from the whole dose curve; as a rule, active = well fitted inhibition curve with a large enough effect; inconclusive = small, poorly fitted or top-dose-only effect; inactive = flat fitted curve, though single readings scatter. Potencies of inconclusive entries are doubtful fits and often do not repeat.

Test: qHTS for Inhibitors of human tyrosyl-DNA phosphodiesterase 1 (TDP1): qHTS in cells in presence of CPT; note: nearly all actives have a fitted effect of over 55% in size
Settings: chicken DT40 Tdp1-/-;hTDP1 cells + 20 nM CPT, ATP luminescence, 48 h; activity change, negative = growth inhibition: at 46.2 µM (top of the series) unless noted
Summary of the method: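 Chicken DT40 Tdp1-/- cells complemented with human TDP1, 400 cells/well, exposed to compounds plus 20 nM camptothecin for at least 48 h at 37 C; viability read as ATP content by CellTiter-Glo luminescence.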
% is set by controls: 0 for no effect and ±100 for the full control effect; potency is the fitted concentration of half-maximal effect; tags give direction and shape of the fitted curve.

| Compound | Potency | activity change, negative = growth inhibition |
| --- | --- | --- |
| C=CCN1C(=O)NC(=O)/C(=C/c2ccc(OCC(=O)Nc3ccc(C)cc3)cc2)C1=O | inactive |  |
| Cc1ccccc1-n1c(/C=C/c2ccc(N(C)C)cc2)nc2ccccc2c1=O | active: 16.4 µM |  |
| O=[N+]([O-])c1cc([As](=O)(O)O)ccc1O | inconclusive: 9.03 µM [inhibitor, single point] |  |
| COC(=O)c1ccc(N2C(=O)CC(N3CCC(O)(c4ccc(Br)cc4)CC3)C2=O)cc1 (stereo unspecified) | inconclusive: 29.1 µM [inhibitor, single point] |  |
| O=C(c1ccc2c(c1)N(Cc1ccc(F)cc1)C(=O)c1ccccc1S2)N1CCC2(CC1)OCCO2 | active: 16.4 µM |  |
| COc1ccc(-c2[nH]ncc2CNC(C)Cc2ccsc2)c(F)c1 (stereo unspecified) | inconclusive: 29.1 µM [inhibitor, single point] |  |
| CC1CCCCN1Cc1c[nH]c2ccccc12 (stereo unspecified) | active: 4.11 µM |  |
| O=C1Nc2cc(C(=O)N3CCC4(CC3)OCCO4)ccc2S/C1=C\c1ccccc1 | inconclusive: 20.6 µM [inhibitor, single point] |  |
| COC(=O)C1=C(c2ccc(F)cc2OCc2ccccc2)C[C@@H]2CC[C@H]1N2C(=O)NCCCOC(C)C | inconclusive: 29.1 µM [inhibitor, single point] |  |
| CN(C)CC/C=C1\c2ccccc2Sc2ccc(Cl)cc21 | active: 23.7 µM |  |
| COc1cccc(CNCCc2cccc(F)c2)c1OC | inconclusive: 29.1 µM [inhibitor, single point] |  |
| O=[N+]([O-])c1cc(I)c(O)c(I)c1 | inactive |  |
| N#Cc1ccc(N2CCNCC2)c(F)c1 | inactive |  |
| Cc1ccc(-n2ncc(C(=O)N3CCN(c4ccc(Cl)cc4)CC3)c2C2CCN(C(=O)OC(C)(C)C)CC2)c(C)c1 | inconclusive: 5.8 µM [inhibitor, single point] |  |
| COc1cccc(CN2CCN(C(=O)COc3ccc4ccccc4c3)CC2)c1 | inconclusive: 18.4 µM [inhibitor, single point] |  |
| COc1cc(OC)c(NS(=O)(=O)c2cc(-c3cnc(C4CC4)o3)ccc2C)cc1Cl | active: 13 µM |  |
| CN1CCCN(C(=O)COc2ccc(F)cc2Cl)CC1 | inactive |  |
| CCOc1ccc(C(=O)N2CCC(c3noc(-c4ccc(S(=O)(=O)N5CCCC5)cc4)n3)CC2)cc1 | inconclusive: 20.6 µM [inhibitor, single point] |  |
| COc1ccc(C2=NCc3nnc(C)n3-c3ccc(Cl)cc32)cc1Cl | inconclusive: 25.9 µM [inhibitor, single point] |  |
| CNc1ccc2oc(C[C@H]3O[C@@]4(CC[C@H]3C)O[C@H]([C@H](C)C(=O)c3ccc[nH]3)[C@H](C)C[C@H]4C)nc2c1C(=O)O | active: 0.0259 µM |  |
| CNC1(c2ccc(F)cc2)CCCCC1 | inactive |  |
| CC(C)CCCC1(C)C=Cc2c(O)c3c(c(CCC(C)C)c2O1)OC12C(CC4CC1C(C)(C)OC2(CCC(C)C(=O)O)C4O)C3=O (stereo unspecified) | inactive |  |
| O=C1NCCOC(=O)[C@H](Cc2ccc(F)cc2)CC/C=C/C[C@@H]1CC(=O)N(CCO)Cc1ccccc1 | active: 16.4 µM |  |
| COc1ccc2c(c[n+](C)c3c4cc5c(cc4ccc23)OCO5)c1OC | active: 1.26 µM |  |

| Compound | Potency | activity change, negative = growth inhibition |
| --- | --- | --- |
| Cc1cc(C=C2C(=O)N(C)C(=S)N(C)C2=O)c(C)n1-c1cccnc1 | inconclusive: 29.1 µM [inhibitor, single point] |  |
| COc1ccc(OCC(=O)N2CCN(Cc3ccc(SC)cc3)CC2)cc1 | inconclusive: 29.1 µM [inhibitor, single point] and inconclusive: 20.6 µM [inhibitor, single point] |  |
| COc1ccc(CN2Cc3cc(N4CCCCC4)ccc3-n3nncc3C2)cc1 | inconclusive: 29.1 µM [inhibitor, single point] |  |
| CCOC(=O)c1c(-n2c(C)cc(/C=C3\C(=O)NC(=O)N(C)C3=O)c2C)sc2c1CCCC2 | inconclusive: 29.1 µM [inhibitor, single point] |  |
| CN(C)C(=O)Oc1ccc(Br)c2ccccc12 | inconclusive: 29.1 µM [inhibitor, single point] |  |
| CCCCn1c(O)c(C=NC2CC3CCC2(C)C3(C)C)c(=O)[nH]c1=O (stereo unspecified) | inconclusive: 29.1 µM [inhibitor, single point] |  |
| O=C1NC(=O)C(CCc2ccccn2)(Cc2ccc3c(c2)OCO3)C(=O)N1CCc1ccccc1 (stereo unspecified) | inconclusive: 35.5 µM [inhibitor, single point] |  |
| CCC(C)n1c(O)c(/C=N/N2CCOCC2)c(=O)[nH]c1=S (stereo unspecified) | active: 23.1 µM |  |
| CCOC(=O)Cc1csc(NC(=O)c2c(O)c3ccccc3n(CCC(C)C)c2=O)n1 | active: 4.11 µM |  |
| C=CCN1C(=O)/C(=C/c2cc(C)n(-c3ccccn3)c2C)C(=O)NC1=S | inconclusive: 25.9 µM [inhibitor, single point] |  |
| CCC(=O)c1c(O)n(C2CCCCCC2)c(=O)[nH]c1=O | active: 6.51 µM |  |
| O=C1NC(=O)N(c2ccc3c(c2)OCO3)C(=O)/C1=C/c1cccs1 | inconclusive: 29.1 µM [inhibitor, single point] |  |
| CC1(C)Cc2c(sc3c2C(=O)NC(c2cccnc2)N3)CO1 (stereo unspecified) | inconclusive: 29.1 µM [inhibitor, single point] |  |
| CSCCC(c1nnnn1-c1c(C)cccc1C)N1CCC2(CC1)C(=O)NCN2c1ccccc1 (stereo unspecified) | active: 23.1 µM |  |
| CN(C)c1ccc(P(=S)(N(C)C)N(C)C)cc1 |  | inconclusive: -34.9% [inhibitor] |
| C=CCn1c(O)c(/C=N/NC(=O)CCCC)c(=O)[nH]c1=S | inactive |  |
| CCCCCCn1c(=O)c(C(=O)Nc2ncccc2C)c(O)c2ccccc21 | active: 4.11 µM |  |
| CCC1CN2CCc3cc(OC)c(OC)cc3C2CC1CC1NCCc2cc(OC)c(OC)cc21 (stereo unspecified) | active: 0.206 µM |  |
| COC(=O)C1=C(c2ccc3ccccc3c2)C[C@@H]2CC[C@H]1N2C | inconclusive: 29.1 µM [inhibitor, single point] |  |
| COC(=O)C1=C(c2ccc(F)cc2F)C[C@@H]2CC[C@H]1N2C(=O)NCCOc1ccccc1Cl | inconclusive: 29.1 µM [inhibitor, single point] |  |
| Cc1ccccc1-n1c(/C=C/c2ccccn2)nc2ccccc2c1=O | active: 18.4 µM |  |
| CC[C@@H](CO)NC(=O)[C@H]1C=C2c3cccc4c3c(cn4C)C[C@H]2N(C)C1 | active: 8.41 µM |  |
| CCC(C)N1C(=O)/C(=C/c2ccc3c(c2)CCN3CCCCl)C(=O)NC1=S (stereo unspecified) | inconclusive: 18.4 µM [inhibitor, single point] |  |
| CC1CN=C(Nc2ccccc2)S1 (stereo unspecified) | inactive |  |

| Compound | Potency | activity change, negative = growth inhibition |
| --- | --- | --- |
| COC(=O)C1=C(c2ccc(Cl)c(C(F)(F)F)c2)C[C@@H]2CC[C@H]1N2C(=O)NCCNC(C)=O | inactive |  |
| CCC(=NCc1ccco1)c1c(O)n(-c2ccc(OC)cc2)c(=O)[nH]c1=O | inactive |  |
| CCOC(=O)[C@]12Cc3ccccc3[C@H]1N(C(C)C)C(=O)c1ccccc12 | inconclusive: 23.1 µM [inhibitor, single point] |  |
| CCOC(=O)[C@]12Cc3ccccc3[C@H]1N(CCC(=O)OC)C(=O)c1ccccc12 | active: 18.4 µM |  |
| C[C@]12CCC3C(CC[C@H]4C[C@@H](O)CC[C@]34C)[C@H]1C=CC2=O (stereo partly specified) | inconclusive: 29.1 µM [inhibitor, single point] |  |
| c1cc2c3c(cccc3c1)CC2 | inactive |  |
| O=C1NC(=O)N(c2ccc3c(c2)OCO3)C(=O)/C1=C/c1ccc(N2CCCC2)o1 | inactive |  |
| O=C(Nc1nccs1)C(Cl)(Cl)Cl | inactive |  |
| CCOC(=O)c1ccc(NC(c2ccc(N(C)C)cc2)P(=O)(OC(C)C)OC(C)C)cc1 (stereo unspecified) | inconclusive: 25.9 µM [inhibitor, single point] |  |
| COc1cc2nc(N(C)C)c(CNCCc3c[nH]c4ccccc34)cc2c(OC)c1OC |  | inactive: 5.5% [at 9.04 µM] |
| CC(=O)O[C@@H]1/C=C/[C@](C)(O)C[C@@H](C)C/C=C/[C@H]2[C@@H]3O[C@]3(C)[C@@H](C)[C@H]3[C@H](Cc4ccccc4)NC(=O)[C@@]312 | active: 0.517 µM |  |
| Cn1cccc1CN1CCN(C(=O)COc2ccccc2)CC1 | inactive |  |
| Cc1ccc(-n2c(O)c(/C=N/N3CCCCC3c3cccnc3)c(=O)[nH]c2=S)cc1 (stereo unspecified) | inactive |  |
| Cc1ccc(-c2cc(-c3ccc(C)cc3)[n+](C)o2)cc1 | active: 0.461 µM |  |
| CCOC(=O)[C@]12Cc3cc(C)ccc3[C@H]1N(Cc1ccccc1)C(=O)c1ccccc12 | active: 10 µM |  |
| CC1Cc2cc(S(=O)(=O)N(Cc3ccccc3)C(C)C)ccc2N1C(=O)C1CCC1 (stereo unspecified) | inconclusive: 23.1 µM [inhibitor, single point] |  |
| COC(=O)C1=C(c2ccc(F)cc2F)C[C@@H]2CC[C@H]1N2C(=O)NCc1ccc2c(c1)OCO2 | inconclusive: 29.1 µM [inhibitor, single point] |  |
| CC(C)C[C@H]1CN([C@@H](CC(C)C)CN2CCCC2CN2C(=S)NC[C@@H]2Cc2ccc(O)cc2)C(=S)N1CC1CCCCCC1 (stereo partly specified) | active: 18.4 µM |  |
| Cc1ccc(NC(=O)Cn2c(=O)oc3cc(S(=O)(=O)N4CCCCCC4)ccc32)cc1Cl | active: 11.6 µM |  |
| COC(=O)[C@@]1(C#N)[C@@H]2C=CC(C(C)=O)=CN2[C@@H](C(N)=O)[C@@H]1c1ccc(F)cc1 | inactive |  |
| Cc1ccccc1-n1c(-c2ccco2)nc2ccccc2c1=O | active: 11.6 µM |  |
| CN(C)c1ccc(C=Cc2ccnc3c(O)cccc23)cc1 | inconclusive: 25.9 µM [inhibitor, single point] |  |
| C#CCN1CCN(c2cccc(C(F)(F)F)c2)CC1 | inactive |  |
